In PubChem BioAssay AID686978 (National Center for Advancing Translational Sciences (NCATS), 2013):
About 64,000 (15%) of roughly 420,000 compounds were called active. The shares of active, inactive and inconclusive entries below differ from those in the screen. Calls follow the shape of the dose curve; as a rule, active = well fitted inhibition curve with a large enough effect; inconclusive = small, poorly fitted or top-dose-only effect; inactive = flat fitted curve, though single readings scatter. Potencies of inconclusive entries are left out as doubtful fits.

Assay: qHTS for Inhibitors of human tyrosyl-DNA phosphodiesterase 1 (TDP1): qHTS in cells in absence of CPT; also: nearly all actives have a fitted effect of over 55% in size
Details: DT40 Tdp1-/- hTDP1 cells, no CPT, ATP luminescence, 48 h; activity change, negative = growth inhibition: at 46.2 µM (top of the series) unless noted
Procedure, shortened: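 Camptothecin absent (DMSO only). Human TDP1-complemented DT40 knockout cells, 400 cells/well, 37 °C for minimum 48 hr; ATP measured via CellTiter-Glo, 30 min dark incubation, luminescence.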
% is scaled to controls: 0 for no effect and ±100 for the full control effect; potency is read from the fitted curve at half-maximal effect; tags tell the direction and shape of the fitted curve.

| SMILES | Potency | activity change, negative = growth inhibition |
| --- | --- | --- |
| O=C(Nc1ccc2nc(SCC(=O)N3CCCC3)sc2c1)c1cccc(Br)c1 | active: 16.4 µM |  |
| COC(=O)c1ccc(Cl)cc1NC(=O)/C=C/c1ccc(C)o1 | inconclusive [inhibitor, single point] |  |
| Cc1ccc(S(=O)(=O)CCC(=O)NC2CCCCC2)cc1 | active: 14.6 µM |  |
| CSc1nc2ccccc2n1C(=O)Oc1ccccc1 |  | inactive: -18.2% |
| Cc1nc(Nc2ccccc2)c2oc3ccc(Cl)cc3c2n1 | active: 23.1 µM |  |
| COc1cc(NC(=O)COc2ccc(F)cc2)nc(OC)n1 |  | inactive: -10.7% |
| Cc1ccc(OCC(=O)Oc2ccc(C)c(C)c2)cc1 |  | inactive: 9.54% |
| COc1ccc(/C=C/C(=O)Nc2ccccc2C(N)=O)cc1S(=O)(=O)N1CCOCC1 |  | inconclusive: -36.6% [inhibitor] |
| O=C1C(Cl)=C(Oc2ccccc2)C(=O)c2ccccc21 | active: 0.259 µM |  |
| CCn1c(CNc2ccc(C(=O)O)cc2)nc2ccccc21 | inconclusive [inhibitor, single point] |  |
| Cc1[nH]n(-c2ccccc2)c(=O)c1C=Nc1ccc(S(N)(=O)=O)cc1 |  | inactive: 2.88% |
| CCOC(=O)c1oc2c(c1C)-c1nn(Cc3c(F)cccc3Cl)cc1CC2 | inconclusive [inhibitor, single point] |  |
| CC(=O)N1CCc2cc(S(=O)(=O)CCC(=O)N3CCc4ccccc4C3)ccc21 |  | inactive: -21.4% |
| COc1cccc(/C=N/n2c(C3CCCCC3)n[nH]c2=S)c1OC |  | inactive: -21.7% |
| COc1cccc(/C=N/Nc2ccc(C(=O)O)cc2)c1O | active: 20.6 µM |  |
| O=C(C1CCCN(c2ncccn2)C1)N1CCc2ccccc21 (centres undefined) | inconclusive [inhibitor, partial curve, poor fit] |  |
| CCn1c(O)c(N=NC(=O)CNC(=O)/C=C/c2ccco2)c2ccccc21 |  | inconclusive: -33% [inhibitor] |
| Cc1cccc(/C=N/NC(=O)CC(=O)NCCc2ccccc2)c1 | inconclusive [inhibitor, single point] |  |
| CCOCCCN1C(=O)c2[nH]nc(-c3ccccc3O)c2C1c1ccc(CC)cc1 (centres undefined) | active: 16.4 µM |  |
| CCCCc1nn2c(=O)cc(COC(=O)c3ccc(NC(=O)CCc4ccccc4)cc3)nc2s1 |  | inactive: -1.12% |
| O=S(=O)(c1ccc(Cl)nc1)N1CCCc2ccccc21 | inconclusive [inhibitor, single point] |  |
| O/N=C/c1cc(Br)cc(Br)c1OCc1ccccc1 | inconclusive [inhibitor, partial curve] |  |
| CC(=O)Nc1ccc(S(=O)(=O)CC(=O)CS(=O)(=O)c2ccc(NC(C)=O)cc2)cc1 | inconclusive [inhibitor, single point] |  |
| Cc1ccc(C(=O)O)cc1NC(=O)C1=CSCCO1 |  | inconclusive: 17% [inhibitor] |
| COC(=O)c1cccc(NC2CC(=O)N(c3ccc(OC)c(OC)c3)C2=O)c1 (centres undefined) |  | inactive: 3.63% |

| SMILES | Potency | activity change, negative = growth inhibition |
| --- | --- | --- |
| O=C(O)CSc1nc2ccc(C(=O)c3ccccc3)cc2[nH]1 |  | inactive: -11.8% |
| COCCn1c(=NC(=O)c2ccccc2[N+](=O)[O-])sc2cc(S(C)(=O)=O)ccc21 | inconclusive [inhibitor, partial curve, poor fit] |  |
| CN(CCc1ccccn1)C(=O)Nc1ccc(C(C)(C)C)cc1 | inconclusive [inhibitor, single point] |  |
| N#CCCN(C(=O)COC(=O)c1cc(=O)[nH]c2ccccc12)c1ccccc1 |  | inactive: -12% |
| Cc1ccc(-c2nc3ccccc3[nH]2)cn1 | inconclusive [inhibitor, single point] |  |
| COc1cc2c(cc1OC)C(C)N(C(=O)Nc1ccccc1)CC2 (centres undefined) | active: 4.11 µM |  |
| CC(CNS(=O)(=O)c1ccc2c(c1)CC(=O)N2C)c1ccccc1 (centres undefined) | inconclusive [inhibitor, single point] |  |
| Cc1cccc(CNc2ccnc(-c3cccnc3)n2)c1 | inconclusive [inhibitor, single point] |  |
| O=S(=O)(c1ccc(-c2csc(-c3cccnc3)n2)cc1)N1CCOCC1 | inconclusive [inhibitor, single point] |  |
| Cc1ccc(C(C)C)c(OCCCn2c(=O)oc3ccccc32)c1 | inconclusive [inhibitor, single point] |  |
| C#CCNC(=O)C1=C[C@@H](c2ccc(Br)cc2)C[C@@H](OCc2ccc(CO)cc2)O1 | inconclusive [inhibitor, single point] |  |
| COc1ccc(C(=O)NCCn2cc(SCc3cc(C)ccc3C)c3ccccc32)cc1 | inconclusive [inhibitor, single point] |  |
| CN(C#N)c1nc(Cl)nc(Nc2cccc(Cl)c2)n1 | inconclusive [inhibitor, single point] |  |
| CC(NC(=O)c1cccc(C(F)(F)F)c1)C(c1ccccc1)N1CCOCC1 (centres undefined) | inconclusive [inhibitor, single point] |  |
| CC(C)(C)OC(=O)NCCCC[C@H](NC(=O)c1nc[nH]c1C(=O)NCc1ccccc1)C(=O)OC(C)(C)C | inconclusive [inhibitor, single point] |  |
| COc1cc(C(C)=O)ccc1OCCCN1CCC(Cc2ccccc2)CC1 | inconclusive [inhibitor, partial curve] |  |
| CCc1nnc(NC(=O)C2CCCN2S(=O)(=O)c2ccccc2)s1 (centres undefined) |  | inactive: 4.37% |
| CCOc1ccccc1NC(=S)Nc1ncccc1C | active: 29.1 µM |  |
| CCOC(=O)N1CCN(Cc2nc3cc(NC(=O)CC(C)C)ccc3n2C)CC1 |  | inconclusive: -31.9% [inhibitor] |
| O=C(NC(=S)N1CCCC(C(F)(F)F)C1)c1ccc(F)cc1 (centres undefined) | active: 23.1 µM |  |
| Cc1cccc(C)c1OCc1cc(C(=O)N(Cc2nccn2C)C(C)C)no1 | active: 10.3 µM |  |
| CN(Cc1ccccc1)C(=O)c1ccc(NC(=O)c2ccccc2)cc1 |  | inactive: 9.35% |
| CC(C)(C)c1ccc(-n2nc(C(N)=O)c(O)cc2=O)cc1 | inconclusive [inhibitor, single point] |  |
| Cn1cnc2c(ncn2[C@@H]2O[C@H](CO)[C@@H](O)[C@H]2O)c1=N |  | inactive: 1.11% |
